Laboratory results reported in paper PMC12040169 (PLOS Biology, 2025).
This is one part of the list.

Each compound was assayed on T1, C. trachomatis L2/434/Bu expressing GFP (CTL2-GFP). Conditions: total inclusion area; 28.5 h, 10 µM; inhibitor.
T1 construct: L2/434/Bu GFP intracellular growth in HeLa cells
Set-up: species or system HeLa; C. trachomatis total inclusion area by high-content imaging, normalised to DMSO
Procedure, shortened: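 Following bulk GFP and resorufin fluorescence reads, infected cells were fixed, Hoechst-stained and imaged on a high-content platform. Inclusion total area and number per well served as growth proxies; nuclei counts indicated host viability. MICs were derived as for the fluorescence assay.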

SMILES | % of control remaining
O=C1CC(C(=O)O)CN(c2cccs2)C1 (stereo not shown) [CBK021796] | 74.1315
CCOC(=O)c1sc(NCCOc2cccc(C)c2)nc1C [CBK265574] | 88.4643
O=C(NCCCN1CCOCC1)c1cc(Cl)ccc1[N+](=O)[O-] [CBK265470] | 94.9863
COC(=O)c1ccc(NC(=O)N2CCCC2c2nc(-c3ccccc3)c3ccccn23)cc1 (stereo not shown) [CBK046725] | 123.319
O=C1c2ccccc2C(=O)N1CN(Cc1ccc2c(c1)OCO2)CN1C(=O)c2ccccc2C1=O [CBK265197] | 88.6755
CC(=O)N(C)Cc1cccc(Nc2ncnc3c2cnn3C)c1 [CBK306319] | 48.0056
Cc1cc(O)n2nc(CC(=O)NCCCn3ccnc3C(C)C)nc2n1 [CBK306876] | 47.6278
COc1ccc(C(C)C)cc1-c1cnc2[nH]c(=O)n([C@H](CO)C(C)C)c2n1 [CBK064962] | 92.717
CC(=O)c1ccc(-c2cc(Nc3ccc(O)cc3C)ncn2)s1 [CBK091052] | 88.1804
Cc1[nH]c(=O)[nH]c(=O)c1CCC(=O)N(C)CC(=O)Nc1cccc(F)c1 [CBK305703] | 50.8507
CC1CN(c2cc(CO)c(F)cn2)CC2(CCOC2)O1 (stereo not shown) [CBK304772] | 50.561
O=C1CC(SCc2nc3ccccc3[nH]2)C(=O)N1c1ccccc1Cl (stereo not shown) [CBK266702] | 84.3842
CCn1c(-c2ccc3c(c2)OCCO3)cnc1SCC(=O)c1cc(C)[nH]c1C [CBK297880] | 73.7309
O=C(O)Cn1cc(I)c(=O)[nH]c1=O [CBK262698] | 102.217
Cc1ccc(C2=N/C(=C/c3ccc(OS(=O)(=O)c4ccc(C)c([N+](=O)[O-])c4)cc3)C(=O)O2)cc1 [CBK264647] | 82.6149
NCCc1nc(-c2ccccc2)c2cnccn12 [CBK035705] | 81.7068
COc1ccc(C2C(C(=O)Nc3ccccc3)=C(C)Nc3ncnn32)cc1 (stereo not shown) [CBK287353] | 81.2594
O=C(Nc1ccc(S(=O)(=O)NCc2ccccc2)cc1)Nc1ccc2c(c1)OCO2 [CBK268186] | 89.1973
O=C(Cn1cccn1)NC(CN1CCCCC1)c1ccccc1 (stereo not shown) [CBK281726] | 106.565
NC1CCC(N(CCc2ccccc2)C(=O)Nc2ccc3c(c2)OCO3)CC1 (stereo not shown) [CBK000480C] | 93.6993
CC(=O)NCCn1cc2c(n1)[C@H]1CN(C(=O)c3ccccc3)C[C@H]1C2 [CBK282073] | 87.0352

SMILES | % of control remaining
CCc1ccc(O)c(NC(=S)NC(=O)c2cccc3c(Br)cccc23)c1 [CBK264385] | 97.2927
Cc1cc(C)n(CC2CN(CC(=O)NCc3ccccn3)CCO2)n1 (stereo not shown) [CBK305344] | 106.68
Cc1nc(C)c(C(C)NCc2c(C(C)C)nn(C)c2N(C)C)s1 (stereo not shown) [CBK304005] | 73.5126
O=C(/C=C/c1cccnc1)NCc1ccc(OC2CCNCC2)cc1 [CBK038945T] | 107.08
CCn1cc(C(=O)N2CCN(Cc3ccco3)C[C@@H]2C(C)C)c(C)n1 [CBK285488] | 95.8047
CCn1c(CN2CCn3c(nnc3C3CC3)C2)nc2c(F)cccc21 [CBK306300] | 70.794
COc1ccc2ccccc2c1[S+]([O-])NC1CCCCC1 (stereo not shown) [CBK022400] | 73.2358
Cc1nn(Cc2cccnc2)c(=O)n2cccc12 [CBK283848] | 102.702
N#Cc1c(N)nc(SCC(=O)c2cc3ccccc3oc2=O)c(C#N)c1-c1ccc(O)cc1 [CBK261269] | 104.566
Nc1n[nH]c(SCC(=O)Nc2ccc(Br)cc2Cl)n1 [CBK267875] | 112.959
CCN(CC)C(=O)c1ccc(-n2ccnc2)c(-n2cccc2)c1 [CBK285371] | 85.0421
CC(C)c1ccc(NC(=O)CN2CCN(c3ccc(C(F)(F)F)cn3)CC2)cc1 [CBK086000] | 91.5184
COc1ncc(-c2nccnc2OC)c(OC)n1 [CBK106744] | 102.614
NC(=O)CNC(=O)C1CCCN(c2nc3c(-c4ccccc4)csc3c(=O)[nH]2)C1 (stereo not shown) [CBK215487] | 111.646
CCOc1ccc(NC(=O)N(CCO)Cc2nccn2C)cc1C#N [CBK307634] | 45.9224
Cc1nc(-c2ccccc2)sc1CNC(=O)C(F)(F)F [CBK092363] | 117.692
Brc1cnc(-n2cnc3ccccc32)nc1 [CBK288546] | 55.2197
O=C(CN1CCC(c2ccc(F)cc2)CC1)N1CCOCC1 [CBK283683] | 89.8454
CNCCC(Sc1ccccn1)c1ccccc1 (stereo not shown) [CBK021724C] | 117.987
Cc1ccccc1CNCCNCCO [CBK278293C] | 93.2146
Cc1ncsc1C(=O)N1CCCC(n2cnc3cc(F)ccc32)C1 (stereo not shown) [CBK284470] | 99.5762

SMILES | % of control remaining
Cn1c2c(c(=O)[nH]c1=O)C1(O)C(=O)c3ccccc3C1(O)N2 (stereo not shown) [CBK261683] | 84.4807
O=C(C1CC1)N1CCC[C@H]1Cn1nc(-c2ccc(F)cc2)ccc1=O [CBK284252] | 90.1
O=C(NCCN1CCOCC1)c1ccc2nccnc2c1 [CBK268806] | 74.9188
O=C(c1ccco1)N1CCC(n2c(=O)oc3ccc(Cl)cc32)CC1 [CBK284343] | 70.876
COc1cnc(-c2ccsc2)c(NC(=O)CC(C)C)n1 [CBK145292] | 109.607
Cc1cc(NC(=O)CSc2nnc3ccc(-c4ccccc4)nn23)no1 [CBK287679] | 71.6747
Cc1ccc(SCCNS(=O)(=O)c2ccc(C)cc2)cc1 [CBK263564] | 90.4251
COc1ccc2c(c1)CCCN2C(=O)c1sc2ccccc2c1Cl [CBK056960] | 66.1721
Cc1nn(C)c(Cl)c1S(=O)(=O)NCc1cc(C)n(C)n1 [CBK062154] | 54.9744
CNC(=O)C1(Cc2ccc(-c3ccccc3)cc2)CCN(C(=O)COc2ccccc2)CC1 [CBK285766] | 98.213
O=C(c1ccccc1)c1ccccc1OCCO [CBK000728] | 116.206
CCCC/C=C/c1cnc2[nH]c(=O)n(CCCOC)c2n1 [CBK064540] | 91.1483
O=S(=O)(N1CCCCC1)N1CCN(CC(O)COc2ccc(-c3ccccc3)cc2)CC1 (stereo not shown) [CBK269370] | 77.5831
O=C1COc2ccc(C(=O)CSc3nnc(C4CC4)n3C3CC3)cc2N1 [CBK297110] | 100.759
CCC(=O)Oc1ccc(/N=C2/NC(C)(C)O2)cc1 [CBK010922] | 84.4286
Cc1n[nH]c(C)c1C1COCCN1C(=O)c1cccc(F)c1 (stereo not shown) [CBK305105] | 70.4476
Cc1ccc(S(=O)(=O)c2ccc(C)c(S(=O)(=O)N3CCC(C)CC3)c2)cc1S(=O)(=O)N1CCC(C)CC1 [CBK261743] | 92.775
CC1CN(c2cc(CNCc3cnn4ccccc34)ccn2)CCO1 (stereo not shown) [CBK304018] | 91.0223
OC(COc1c(Br)cccc1Br)CN1CCCCC1 (stereo not shown) [CBK003077T] | 36.355
CCN(CC)C(=O)C1CCCN(C(=O)NC(c2ccccc2)c2ccccc2)C1 (stereo not shown) [CBK156125] | 113.536
CC(C)c1ccc(S(=O)(=O)NCc2ccc(F)c(F)c2F)cc1 [CBK044717] | 97.2631

SMILES | % of control remaining
O=C(CSc1nnc(-c2cccnc2)s1)Nc1ccc([N+](=O)[O-])cc1 [CBK268777] | 69.0332
O=C(NCC(c1ccco1)N1CCCC1)C1CCCCC1 (stereo not shown) [CBK304560] | 95.5188
CCCCc1cc(=O)[nH]c(N2CCOCC2)n1 [CBK003851] | 92.7407
C#CCNC(=O)C1CCCN(c2nc3ccccc3n2CC)C1 (stereo not shown) [CBK282433] | 116.381
COc1ccc(-c2cc(C(=O)Nc3nc4ccccc4[nH]3)cnc2-c2ccc(F)cc2)cn1 [CBK036617] | 70.1322
Cc1nn(C)c(C)c1S(=O)(=O)n1ccn(-c2ccc(N(C)C)cc2)c1=O [CBK106610] | 100.323
O=C(O)CCNS(=O)(=O)c1ccc2[nH]c(=O)[nH]c2c1 [CBK266906] | 105.519
O=S(=O)(Nc1ccc2[nH]ncc2c1)c1ccc(Br)cc1C(F)(F)F [CBK062529] | 94.7876
Cc1nc2c(Oc3ncccn3)cccn2c1N(C)C(=O)C1CCCCC1 [CBK147161] | 120.147
Cc1ccccc1-c1nnc(SC(C)C)n1CCN(C)CC(F)(F)F [CBK200090] | 99.1146
O=C(NCCc1c[nH]c2ccccc12)c1nn(-c2ncccn2)c2ccccc12 [CBK048496] | 94.4261
Cc1ccc2nc(-c3ccccc3)c(CN3CCCC3)c(O)c2c1 [CBK264736] | 98.2298
O=C(NCCCN1CCOCC1)c1ccc2nccnc2c1 [CBK268704] | 82.7178
c1ccc2oc(CN3CCC(N4CCCCC4)CC3)cc2c1 [CBK282052] | 106.772
C=CCN1CCC(C(=O)NC(C)c2cc(OC)ccc2OC)CC1 (stereo not shown) [CBK148762] | 94.607
O=C(O)COc1ccc(Br)cn1 [CBK026021] | 44.8839
O=C(O)c1ccccc1C(=O)c1ccc(Oc2ncc(C(F)(F)F)cc2Cl)cc1 [CBK161648] | 103.251
O=C1c2ccc(-c3ccc4c(c3)C(=O)N(Cc3ccco3)C4=O)cc2C(=O)N1Cc1ccco1 [CBK266578] | 109.086
Cc1noc(C)c1C(=O)N1CCC2(CC1)CC(=O)c1cc(Br)ccc1O2 [CBK156508] | 84.6344
